# Experimental data taken from article PMC4336329 (PLoS ONE, 2015).
# In all, about 310,000 compounds went through this assay and about 14,000 (4.5%) showed an effect of 50% or more. Effects have a minus sign here. Some of the results follow.
# Molecular target: human ether-à-go-go-related gene (hERG) potassium channel (human, UniProt Q12809)
# Test: primary screen, population patch clamp on CHO cells stably expressing hERG
# 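Note: peak tail current of the secondary pulse compared with the same well before compound.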
# Chain of human ether-à-go-go-related gene (hERG) potassium channel (Q12809 whole entry, looked up): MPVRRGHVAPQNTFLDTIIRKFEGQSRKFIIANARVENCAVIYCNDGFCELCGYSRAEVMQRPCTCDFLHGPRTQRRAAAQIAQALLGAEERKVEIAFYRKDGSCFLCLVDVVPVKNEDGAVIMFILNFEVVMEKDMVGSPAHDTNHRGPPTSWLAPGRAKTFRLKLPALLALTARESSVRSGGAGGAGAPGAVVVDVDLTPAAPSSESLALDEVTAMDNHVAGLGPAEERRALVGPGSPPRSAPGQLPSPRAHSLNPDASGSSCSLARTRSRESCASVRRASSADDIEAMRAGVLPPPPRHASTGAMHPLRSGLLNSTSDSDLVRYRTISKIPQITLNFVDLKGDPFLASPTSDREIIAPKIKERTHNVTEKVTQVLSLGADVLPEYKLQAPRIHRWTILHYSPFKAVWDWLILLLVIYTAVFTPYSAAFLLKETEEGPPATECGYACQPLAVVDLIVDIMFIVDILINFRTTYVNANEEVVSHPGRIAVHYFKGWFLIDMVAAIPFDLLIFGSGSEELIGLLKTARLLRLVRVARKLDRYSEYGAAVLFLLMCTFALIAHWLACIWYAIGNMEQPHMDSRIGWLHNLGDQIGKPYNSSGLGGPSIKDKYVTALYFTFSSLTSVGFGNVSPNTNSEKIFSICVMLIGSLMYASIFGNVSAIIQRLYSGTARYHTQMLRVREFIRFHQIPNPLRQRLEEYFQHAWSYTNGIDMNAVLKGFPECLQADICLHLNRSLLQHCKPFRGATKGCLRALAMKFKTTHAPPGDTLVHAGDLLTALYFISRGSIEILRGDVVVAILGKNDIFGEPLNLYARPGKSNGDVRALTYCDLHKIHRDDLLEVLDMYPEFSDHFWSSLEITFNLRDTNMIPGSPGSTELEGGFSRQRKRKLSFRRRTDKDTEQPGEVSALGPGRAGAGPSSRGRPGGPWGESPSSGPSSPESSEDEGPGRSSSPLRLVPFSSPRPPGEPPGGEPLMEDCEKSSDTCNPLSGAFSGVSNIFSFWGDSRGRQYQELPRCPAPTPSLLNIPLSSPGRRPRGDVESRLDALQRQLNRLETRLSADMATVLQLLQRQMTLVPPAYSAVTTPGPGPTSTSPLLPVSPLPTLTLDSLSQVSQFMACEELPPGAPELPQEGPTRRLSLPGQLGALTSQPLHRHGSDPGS
row,SMILES,"hERG current change (%, negative = inhibition) at 10uM"
1,C/C(=N\N1CCCCCC1)c1c(O)n(C)c(=O)n(C)c1=O,18.4%
2,Cc1cccc(N2CCN(C3CCCCC3NS(=O)(=O)c3ccccc3)CC2C)c1 (stereo not drawn),11.4%
3,CC(C)CC(OC(=O)c1cccs1)C(=O)NCc1cccs1 (stereo not drawn),-5.65%
4,CCN(CC)S(=O)(=O)c1cccc(NC(=S)NC(=O)/C=C/c2ccc(S(=O)(=O)N3CCOCC3)cc2)c1,-6.82%
5,C=CCNC(=S)NC(CC(=O)OC)c1ccc2c(c1)OCO2 (stereo not drawn),4.12%
6,O=C(NCC1c2ccccc2CCN1C(=O)CN1C(=O)c2ccccc2C1=O)C1CCCCC1 (stereo not drawn),-6.49%
7,CCN(CC)C(=O)N1CCn2c(nc3ccccc32)C1,-0.701%
8,CCc1nnc(SCC(=O)Nc2ccc3c(c2)OCO3)n1CC,13.2%
9,O=C(NNC1=NS(=O)(=O)c2ccccc21)c1ccccc1Cl,7.15%
10,COCC(=O)Nc1cc(C)cn(Cc2ccccc2Cl)c1=O,15.1%
11,O=[N+]([O-])c1cccc(/C=N/NC2=NS(=O)(=O)c3ccccc32)c1,25.4%
12,CCCn1c(SCC(=O)NC(C)(C)C)nnc1C(C)C,15%
13,COc1ccc(CCNC(=O)COC(=O)CSc2ccc([N+](=O)[O-])cc2)cc1OC,-10.4%
14,CC(C)OC(=O)c1cccc(NC(=O)CSc2nnc(N)s2)c1,-17%
15,Cc1nc2ncccn2c1-c1csc(Nc2ccccc2)n1,-54.7%
16,CCOC(=O)C1=C(c2ccccc2)OC(N)=C(C#N)C1C(C)C (stereo not drawn),-3.43%
17,Cc1ccc(-c2noc(CN3CCC(C(N)=O)CC3)n2)cc1,21.9%
18,COc1cc(/C=C/C(=O)OCC(=O)NC(=O)NC(C)C)ccc1OCC#N,-16.8%
19,Cc1ccccc1NC(=O)CSc1cn[nH]n1,11.8%
20,COc1ccc(S(=O)(=O)N2CCC(C(=O)N3CCc4ccccc4C3)CC2)cc1OC,-27.4%
21,COc1cccc(NC(=O)c2ccn(C)n2)c1,20.7%
22,Cc1nc2cc(NC(=O)N(C)c3ccc4ccccc4c3)ccc2o1,-3.63%

row,SMILES,"hERG current change (%, negative = inhibition) at 10uM"
1,Cc1ccc2cc(CN(CCO)Cc3nnnn3Cc3ccc(F)cc3)c(=O)[nH]c2c1,-19.3%
2,CN(CC(=O)NCc1ccccn1)S(=O)(=O)c1ccc2ccccc2c1,-9.77%
3,O=c1cc(COc2ncnc3ccccc23)nc2sccn12,1.7%
4,Cc1cc(F)ccc1S(=O)(=O)N1CCCOC1CNC(=O)C(=O)NCc1cccnc1 (stereo not drawn),7.92%
5,CN(CC(=O)Nc1cccc(F)c1)C(=O)c1cc(S(=O)(=O)N2CCCCC2)ccc1N1CCOCC1,-2.94%
6,Nc1c(/C=C2\C=Nc3ccccc32)c(=O)nc2sc(CC(=O)N3CCOCC3)nn12,17.2%
7,C=CCN1C(=O)C2C(C(=O)NC3CCCC3)C3C=CC2(O3)C1C(=O)NC1CCCC1 (stereo not drawn),19%
8,O=C(CSC1=NCCS1)Nc1ccc(S(=O)(=O)NC2CCCCC2)cc1,-8.65%
9,CCN(CC(=O)Nc1ccc2c(c1)OCCO2)C(=O)/C=C/c1ccccc1,9.54%
10,CCCc1ncc(C(O)c2ccccc2OC)n1C (stereo not drawn),14.7%
11,O=C(N/C(=C/c1ccc(Cl)cc1)C(=O)N1CCCCC1)c1ccco1,0.118%
12,COC(=O)Nc1csc2c1NC(=O)CCCC2,23.4%
13,Cc1cccc(-n2c(C)cc(C(=S)N3CCOCC3)c2C)c1C,-7.9%
14,CCN(CC)c1c([N+](=O)[O-])ncn1C,-16.8%
15,CCCCC(=O)N/N=C/c1c(O)n(-c2ccccc2)c(=O)[nH]c1=O,15.7%
16,Cc1cccc(Oc2ccc3c(c2)cc(C(=O)O)n3C)c1,-0.114%
17,O=C(NCC(=O)N1CCC2(CC1)NCCc1[nH]cnc12)c1ccc2ccccc2c1,11.7%
18,COc1ccc(Cl)cc1C(=O)OCC(=O)NCCNC(=O)COC(=O)c1cc(Cl)ccc1OC,-71.6%
19,O=C(CC(=O)N/N=C\c1ccccc1[N+](=O)[O-])NCCc1ccccc1,3.08%
20,Cc1noc(C)c1S(=O)(=O)Nc1ccc(C(=O)NCCc2ccccc2)cc1,4.12%
21,CS(=O)(=O)NCc1nnc(SCc2c(F)cccc2Cl)o1,-1.23%
22,CCOc1ccc2nc(-c3ccccc3)nc(SCC(=O)Nc3ncc(C)s3)c2c1,-0.463%

row,SMILES,"hERG current change (%, negative = inhibition) at 10uM"
1,Cc1ccccc1N1CC(C(=O)Nc2nnc(SCC(=O)Nc3nccs3)s2)CC1=O (stereo not drawn),10.4%
2,Cc1cc(N/N=C/c2ccc(O)cc2O)c2ccccc2n1,4.97%
3,COc1ccc(CCNc2ccc(C(CC(N)=O)NC(=O)Cc3ccc(Br)cc3)cc2[N+](=O)[O-])cc1 (stereo not drawn),4.07%
4,COc1ccc(-c2ccc(=O)n(Cc3cccc(Cl)c3)n2)cc1,1.31%
5,Cc1ncccc1C(=O)N1CCCC(CCC(=O)N2CCN(c3ccccn3)CC2)C1 (stereo not drawn),15.2%
6,NC(=O)c1cc(NC(=O)CCc2nc3ccccc3s2)cc(C(N)=O)c1,22.7%
7,COC(=O)c1ccc(C(NC(=O)OCc2ccccc2)/C(F)=C/[C@@H](C)C(=O)NCc2ccc(-c3ccccc3)cc2)cc1 (stereo partly drawn),15.3%
8,O=C(NCC1COc2ccccc2O1)C1CCCN(S(=O)(=O)c2cccc3cccnc23)C1 (stereo not drawn),-18.7%
9,COc1ccc([C@H]2CC(=O)C=C(c3cc(C)ccc3OC)C2)cc1,2.17%
10,CSc1nsc(SCC(=O)Nc2ccc3c(c2)OCCO3)n1,-4.72%
11,COc1ccc(C(=O)Nc2ccccc2-c2nnn(CC(=O)NCc3ccco3)n2)cc1,14.7%
12,CCCCn1nnc(NC(=O)c2cc3ccccc3o2)n1,5.44%
13,CCOC(=O)c1nnn(CC(=O)NC(=O)Nc2ccccc2)c1C(=O)OCC,-15.9%
14,COc1ccc(-c2cc3onc(-c4c(Cl)cccc4Cl)c3c(=O)n2C)cc1,9.03%
15,CC(C)c1ccc(NC2CCCN(C(=O)c3cccc(N4CCNC4=O)c3)C2)cc1 (stereo not drawn),2.24%
16,Cc1ccccc1NC(=O)CSc1nc(N)c(C#N)c(-c2cccs2)c1C#N,6%
17,Cc1ccc(NC(=O)C2CCCN2C(=O)c2cccs2)cc1C (stereo not drawn),-25.5%
18,Cc1cc(C)c2nc(-c3ccccn3)cc(C(=O)Nc3cc(C)on3)c2c1,10.4%
19,CC1(C)OC(=O)C(=NNc2ccccc2[N+](=O)[O-])C(=O)O1,24.3%
20,Cn1c(CNC(=O)c2ccco2)nnc1SCC(=O)Nc1c(F)cc(F)cc1Br,13.7%
21,COc1ccc(CC(=O)OCC(=O)c2ccc(S(=O)(=O)N3CCCCC3)cc2)cc1,-14.3%
22,COc1ccc(CNCCSc2nnnn2C)c(OC)c1OC.Cl,7.83%

row,SMILES,"hERG current change (%, negative = inhibition) at 10uM"
1,C=CCN=C1N[C@@H](c2ccccc2)C(C(=O)OC)=C(C)N1CC,1.27%
2,C#CCNC(=O)C1=C[C@H](c2ccccc2)[C@@H](CCCO)[C@H](OCC)O1,19.9%
3,COc1ccccc1OCc1nnc(SCCN2CCOCC2)o1.O=C(O)C(=O)O,-1.58%
4,Cn1ncc(Cl)c1C(=O)N1CCN(c2cccc(Cl)c2)CC1,-8.7%
5,c1ccc(-c2nc(N3CCCC3)nc3ccccc23)cc1,8.87%
6,CCCCCN1C(C)=CC(=C(C#N)C#N)C=C1C,16.3%
7,Cn1cccc1/C=C(/C#N)c1ccc(F)cc1,-5.5%
8,CCc1ccc(-c2nc(SCC(=O)N3CCOCC3)n[nH]2)cc1,13.6%
9,CCOC(=O)c1cc2sc(C)cc2n1C(C)C(=O)OCC (stereo not drawn),-9.57%
10,COc1ccccc1-n1cc(C(=O)NCC(=O)NCc2ccc(F)cc2)c2ccccc2c1=O,-19.5%
11,CC(C)C(=O)N1CCC(c2nc(-c3ccc(S(=O)(=O)N4CCN(C)CC4)cc3)no2)CC1,13.2%
12,CC(C)CNC(=O)COC(=O)CCC(=O)c1cccs1,18.7%
13,CC(Nc1cccc(F)c1)C(=O)Nc1ccc(S(N)(=O)=O)cc1 (stereo not drawn),19.3%
14,CCOC(=O)C1=C(C)Nc2ccccc2N=C1NC(=O)c1cc(C)on1,-33%
15,COc1ccc(S(=O)(=O)Nc2ccccc2OC)cc1NC(=O)c1cc2ccccc2oc1=O,8.54%
16,Cc1cc(NC(=O)C2CC=CCC2C(=O)O)no1 (stereo not drawn),-1.9%
17,COC(=O)c1ccccc1NC(=O)Cn1ccnc1,-8.31%
18,COc1cccc(OC)c1OCCCOc1c(OC)cccc1OC,2.41%
19,CC(C)CNS(=O)(=O)c1ccc(C(=O)Nc2ccc3c(c2)OCCO3)cc1,18.3%
20,Cc1c(NS(=O)(=O)c2cc(C(=O)NCc3ccco3)cc(Cl)c2Cl)c(=O)n(-c2ccccc2)n1C,-39.5%
21,C[C@]12CCC(=O)C=C1CC[C@@H]1C2[C@H](O)C[C@]2(C)C(=O)CCC12 (stereo partly drawn),18%
